From PubChem BioAssay AID1159614 (National Center for Advancing Translational Sciences (NCATS), 2016)
About 65 (0.1%) of roughly 45,000 compounds were called active. Calls come from the whole dose curve; as a rule, active = well fitted activation curve with a large enough effect; inconclusive = small, poorly fitted or top-dose-only effect; inactive = no such curve, though single readings can be large or run the other way. The list shows a part of the results.

Molecular target: Galactocerebrosidase (Homo sapiens) (UniProt P54803)
Chain of UniProt P54803 (P54803 whole entry, looked up): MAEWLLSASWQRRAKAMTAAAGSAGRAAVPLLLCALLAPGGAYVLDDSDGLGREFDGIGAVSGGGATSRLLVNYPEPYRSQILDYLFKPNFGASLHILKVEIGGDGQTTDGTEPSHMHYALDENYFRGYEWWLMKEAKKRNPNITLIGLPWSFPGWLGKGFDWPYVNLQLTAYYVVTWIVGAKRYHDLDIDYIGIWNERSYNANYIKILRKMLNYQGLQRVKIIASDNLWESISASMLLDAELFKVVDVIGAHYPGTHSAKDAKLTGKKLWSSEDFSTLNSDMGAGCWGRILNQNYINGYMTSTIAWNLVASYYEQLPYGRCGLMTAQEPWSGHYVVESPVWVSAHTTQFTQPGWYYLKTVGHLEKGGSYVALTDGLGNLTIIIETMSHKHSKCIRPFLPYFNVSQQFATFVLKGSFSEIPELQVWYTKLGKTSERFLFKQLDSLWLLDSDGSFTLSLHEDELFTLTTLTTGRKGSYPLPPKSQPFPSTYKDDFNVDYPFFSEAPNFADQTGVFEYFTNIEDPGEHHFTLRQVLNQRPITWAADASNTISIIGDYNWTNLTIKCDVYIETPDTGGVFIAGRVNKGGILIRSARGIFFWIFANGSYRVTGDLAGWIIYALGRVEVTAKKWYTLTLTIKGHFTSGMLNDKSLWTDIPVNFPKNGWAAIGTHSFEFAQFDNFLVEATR
Experiment: A Novel Cell-Based Assay to Identify Small Molecules for B -Galactocerebrosidase; note: 0% is about no effect; nearly all actives have a fitted effect of over 65% in size
Settings: 145M-Twi-hGALC-G270D cells (Twitcher mouse brain line with human GALC G270D), HMU-beta-Gal fluorescence, 48 h; series mostly up to 57.5 µM; activation: at the top concentration
Summary of the method: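 Brain-derived Twitcher mouse 145M-Twi cells stably expressing human GALC-G270D or wild-type GALC, treated live, then residual GALC activity read by fluorescence of HMU-b-Gal substrate (0.1 mM final) in citrate-phosphate buffer pH 5.2 with sodium taurocholate. Signal increase indicates enhancement.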

activation, inactive:
CC(C)NC(=O)c1ccc2c(c1)nc1n2CCCCC1 -9.01%
CCCOC(=O)CSc1nnc(-c2ccccc2)o1 -10.2%
CCOC(=O)c1ccccc1NC(=O)c1cc2ccc3cccnc3c2[nH]1 -6.8%
Cc1oc2ncnc(N3CCOCC3)c2c1C(=O)NCCc1ccccc1 -8.75%
CCn1c(C(=O)Nc2ccc(C)cc2C)cc2sc(Cl)cc21 -3.1%
CC1CCC(NC(=O)C2(C)Cc3ccccc3C(=O)N2Cc2ccc(Cl)cc2)CC1 (stereo unspecified) 3.18%
Cc1ccc(NS(=O)(=O)c2ccc3nc(-c4ccccc4)[nH]c3c2)c(Br)c1 -11%
COc1ccc(-c2noc(CC(=O)Nc3cc(OC)ccc3OC)n2)cc1 -0.157%
Cc1sc2ncn(CC(=O)N(C)c3ccc(C(C)C)cc3)c(=O)c2c1S(=O)(=O)N1CCC(C)CC1 -11.6%
Cc1ccc(Nc2nc3ccc(C(=O)c4ccccc4)cc3n3c(C)nnc23)c(C)c1 -9.62%
O=C(/C=C/c1ccc(Cl)cc1)N1CCC(c2nc3ccccc3o2)CC1 -6.56%
CCCCN(CC)CCCNC(=O)c1cn(CC)c2ccc(S(=O)(=O)N3CCc4ccccc4C3)cc2c1=O -12.8%
CCCn1c(=O)c2sccc2n2c(CCCC(=O)N3CCN(c4cccc(Cl)c4)CC3)nnc12 -13.6%
CC(=O)c1cccc(NC(=O)CN2C(=O)CC(c3ccc(C)cc3C)=Nc3ccccc32)c1 -5.31%
COc1ccc(CCNC(=O)c2cc3c(=O)n(C)c4ccccc4c3s2)cc1OC 3.8%
O=C(Cn1cc(C(=O)c2ccccc2)c(=O)c2cc3c(cc21)OCCO3)Nc1ccc(F)c(F)c1 -25.9%
Cc1ccc(C)c(N2CCN(S(=O)(=O)c3ccc(C(=O)N(C)C)s3)CC2)c1 -17.7%
CCc1cc2c(cc3c(=O)n(CC(=O)N4CCN(c5cccc(C)c5C)CC4)nc(CC)n32)s1 -1.27%
CCc1ccccc1NC(=O)CCC(=O)N1CC(C)Oc2ccc(C)cc21 (stereo unspecified) -7.68%
COc1ccc(CCNCc2c(C(=O)O)c(C)n(Cc3cccc(Cl)c3)c2C)c(OC)c1OC -10.2%
COc1ccc(NC(=O)CCNS(=O)(=O)c2ccc3c(c2)CCCC(=O)N3)cc1 -15.6%
Cc1ccc(-c2cc3ncc4c(n3n2)-c2cc(Cl)ccc2OC4)cc1 3.14%
CCn1nnc2cc(C(=O)Nc3cc(C)ccc3C)ccc21 -10.7%
O=C(NCc1ccc(F)cc1)C(=O)Nc1ccc2nc3n(c(=O)c2c1)CCCCC3 -8.99%
CCOc1ccc(CC(=O)NCc2ccc3c(c2)CCN3C(=O)c2ccccc2)cc1OCC -16.1%
COc1ccc(NC(=O)CC2C(=O)N(c3cccc(OC)c3)C(=O)N2CCC2=CCCCC2)cc1 (stereo unspecified) -13.4%
O=C(Cn1cc(S(=O)(=O)Cc2ccccc2Cl)c2ccccc21)NCCc1ccccc1 -10.4%
Cc1ccccc1CNC(=O)CCC(=O)N1CCSc2ccccc21 5.44%
CCOc1ccccc1CNS(=O)(=O)c1cc2c(cc1C)NC(=O)CO2 -11.9%
COc1ccc(NC(=O)c2c(NC(=O)COc3ccccc3)sc3c2CCCCC3)cc1 -19.6%
COc1ccccc1C(=O)Nc1ccc(S(=O)(=O)Nc2ncccn2)cc1 -11.3%
Cc1cc(F)ccc1NC(=O)CCn1nc(C)c(S(=O)(=O)N2CCCCC2)c1C -4.53%
Cc1ccc(C)c(N2CCN(C(=O)C(CC(C)C)NS(=O)(=O)c3ccc4nc(C)sc4c3)CC2)c1 (stereo unspecified) -19%
Cn1c([N+](=O)[O-])cnc1COC(N)=O -8%
NC(=O)CSc1nc2ccc(NC(=O)COc3ccccc3Cl)cc2s1 -11.9%
CS(=O)(=O)N(Cc1ccccc1)c1ccc(C(=O)Nc2ccc(Cl)cc2)cc1 -11.5%
Cc1cccc(-n2nc(C)c(C(=O)N3CCN(c4ccccc4)CC3)c2-n2cccc2)c1 -0.034%
Cc1ccc(C)c(N2CCN(c3nc4ccc(C(=O)c5ccccc5)cc4n4cnnc34)CC2)c1 -13.6%
CCOC(=O)c1cnc2c(C)cccc2c1Nc1ccc(OC(C)C)cc1 4%
Cn1c(=O)[nH]c(=O)c2c1nc(CN1CCN(c3ccccc3F)CC1)n2Cc1ccc(F)cc1 -22.3%
COc1ccccc1CN(Cc1c(Cl)cccc1Cl)S(=O)(=O)c1ccc(Br)cc1 -5.93%
Cc1cccc(OCCCn2c(CCNC(=O)C3CCCCC3)nc3ccccc32)c1 -22.7%
COc1ccc(Cl)cc1NC(=O)c1cc(S(=O)(=O)N(C)Cc2ccccc2)ccc1F -17.8%
COc1cccc(-c2nc(SCC(=O)Nc3ccc4c(c3)OCCO4)c(-c3ccc(C)cc3)[nH]2)c1 -13.5%
CCOc1ccc(-c2cc(C(=O)NCCc3ccc(OC)c(OC)c3)c3c(-c4ccc(F)cc4)[nH]nc3n2)cc1 -14.1%
Cc1ccc(Cl)cc1NC(=O)c1oc2ccc(S(=O)(=O)N3CCCCCC3)cc2c1C 0.803%
Cn1cc(S(=O)(=O)c2cccc(Cl)c2)c(=O)c2cc(F)c(N3CCCCC3)cc21 -9.23%
O=C(NCCc1ccc(Cl)cc1)c1ccc(CSCc2cccc(Cl)c2)o1 -15.9%
CCCN1C(=O)C(Cc2nc3ccccc3c(=O)n2-c2ccc(OC)cc2)c2cc(C)ccc21 (stereo unspecified) -8.98%
CCc1cccc(C)c1NC(=O)CSc1nc2c(c(=O)[nH]1)CCC2 1.69%
Cc1cc(C)cc(OCC(=O)N2CCC(c3nc4ccccc4s3)CC2)c1 -18.4%
Cc1ccc(C(=O)Nc2ccc3oc(-c4ccccc4C)nc3c2)cc1 -8.28%
CC(=O)N1CCc2c(sc3c2c(=O)n(-c2ccc(C)cc2)c(=O)n3Cc2ccccc2C)C1 -8.13%
CCCCNC(=O)c1ccc2c(c1)NC(=O)C(CS(=O)(=O)Cc1ccc(C)cc1)N2 (stereo unspecified) -2.17%
O=C(NCC(c1ccco1)S(=O)(=O)c1cccs1)c1ccc(Cl)cc1 (stereo unspecified) -5.07%
Cc1cc(C(=O)NCc2ccccc2Cl)c2c(C)nn(-c3cccc(F)c3)c2n1 -13.5%
Cc1ccc2oc(=O)n(CCNC(=O)Nc3ccc(Cl)cc3)c2c1 -18.2%
CCCN(C(=O)Nc1cn(CC(C)C)c(=O)c2ccccc12)c1ccc(F)cc1 -22.3%
Cc1cc(C)cc(NC(=O)CSc2nc3sc4c(c3c(=O)[nH]2)CCCC4)c1 19.3%
CCC1CN(C(=O)Nc2cc(Cl)c(OC)cc2OC)c2ccccc2O1 (stereo unspecified) -12.2%
CCc1ccc(C2c3c(oc4cc(C)c(C)cc4c3=O)C(=O)N2c2nc(C)c(C(=O)OC)s2)cc1 (stereo unspecified) -21.7%
